Experimental findings from PMC5892938 are described below.

This is one part of the list. At the low end of the ranking, values are background and their order means little.

This experiment deals with GST-SBP-SLBP (stem-loop binding protein) (UniProt Q14493). Briefly: targeted RNA Bind-n-Seq.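 Note: DESeq read counts versus GST-SBP nonspecific binding control pulldown.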 To be noted: RBNS binding buffer: 25 mM Tris pH 7.5, 150 mM KCl, 3 mM MgCl2, 0.1% Tween, 0.5 mg/mL BSA, 1 mM DTT; 27 nM protein, 750 pM RNA pool; temperature not stated; high values mean tight binding.
On to “GGUCACGUCUCAAUCAACUCAACUUCAGGAGUUUCCUCCUGUUUUUUCAACAGCUCGCAGUCAAG”, for which the binding signal (log2 fold change) was -0.0509. As for “GGUCACGUCUCAAUCAACUCUAGUCCCAGGGAAAACCCUGGUAAAUUCAACAGCUCGCAGUCAAG”, the figure is -0.182; as for “GGUCACGUCUCAAUCAACUCAACUCCAGGAGUUUUCUCCUGCAUAUUCAACAGCUCGCAGUCAAG”, 0.0938. Take “GGUCACGUCUCAAUCAACUCAUCCUCAGGAGUUUUCUCCUGUAAUUUCAACAGCUCGCAGUCAAG”: the binding signal (log2 fold change) was found to be 0.0689.

On to “GGUCACGUCUCAAUCAACUCUUUAGAGGGGGGGAAAACCCCUUUGCCCUCAUUAUCAACAGCUCGCAGUCAAG”, for which the binding signal (log2 fold change) is -0.1.

In the case of “GGUCACGUCUCAAUCAACUCUUUCUCAGGAGUUUUCUCCUGUUAUGUCAACAGCUCGCAGUCAAG”, the binding signal (log2 fold change) came to 0.024. The value for “GGUCACGUCUCAAUCAACUCUAUCCCCAGGGAAAACCCUGGUAUUCUCAACAGCUCGCAGUCAAG” was 0.0466. In the case of “GGUCACGUCUCAAUCAACUCUUUCGAGGGGGGGAAAACCCCUUUGCCCUCAUCAUCAACAGCUCGCAGUCAAG”, the binding signal (log2 fold change) worked out at 0.127.

“GGUCACGUCUCAAUCAACUCAAUCUCAGGAGUUUCCUCCUGUUUAUUCAACAGCUCGCAGUCAAG”: the binding signal (log2 fold change) came to 0.173. The value for “GGUCACGUCUCAAUCAACUCAAUCUCCAGGGAAAACCCUGGCAAUUUCAACAGCUCGCAGUCAAG” was 0.237.

Consider “GGUCACGUCUCAAUCAACUCAUUUUCAGGAGUUUGCUCCUGCUAUUUCAACAGCUCGCAGUCAAG”, for which the binding signal (log2 fold change) is -0.000797.

“GGUCACGUCUCAAUCAACUCAAUCCCAGGAGUUUCCUCCUGUAUAUUCAACAGCUCGCAGUCAAG”: the binding signal (log2 fold change) stood at 0.00994. The value for “GGUCACGUCUCAAUCAACUCACCCGAGGGGGGGAAAACCCCUUUACCCUCAACAUCAACAGCUCGCAGUCAAG” was -0.258; that for “GGUCACGUCUCAAUCAACUCUAUCCCCAGGGAAAACCCUGGCAAAUUCAACAGCUCGCAGUCAAG” was 0.0358.

Take “GGUCACGUCUCAAUCAACUCAAUCUCAGGAGUUUGCUCCUGCUUUCUCAACAGCUCGCAGUCAAG”: the binding signal (log2 fold change) was 0.113. Regarding “GGUCACGUCUCAAUCAACUCACUAGAGGGGGGGAAAACCCCUUUACCCUCAAUUUCAACAGCUCGCAGUCAAG”, the binding signal (log2 fold change) amounted to 0.352. In the case of “GGUCACGUCUCAAUCAACUCUAUCCCCAGGGAAAUCCCUGGCAUUUUCAACAGCUCGCAGUCAAG”, the binding signal (log2 fold change) was -0.193. For “GGUCACGUCUCAAUCAACUCAUCUCCAGGAGUUUACUCCUGCAUACUCAACAGCUCGCAGUCAAG”, the binding signal (log2 fold change) came out at 0.16. Turning to “GGUCACGUCUCAAUCAACUCAAUUUCAGGAGUUUUCUCCUGCGUAUUCAACAGCUCGCAGUCAAG”, the binding signal (log2 fold change) was 0.0803. As for “GGUCACGUCUCAAUCAACUCAUUUCCCAGGGAAAUCCCUGGUUUUCUCAACAGCUCGCAGUCAAG”, the figure is -0.0893.

“GGUCACGUCUCAAUCAACUCCCAAGAGGGGGGGAAAACCCCUUUGCCCUCAUCAUCAACAGCUCGCAGUCAAG”: the binding signal (log2 fold change) was -0.373. The value for “GGUCACGUCUCAAUCAACUCCCAAGAGGGGGGGAAAACCCCUUUGCCCUCCACAUCAACAGCUCGCAGUCAAG” was -0.19. The value for “GGUCACGUCUCAAUCAACUCUAUCUCAGGAGUUUCCUCCUGCUAUCUCAACAGCUCGCAGUCAAG” was 0.15; that for “GGUCACGUCUCAAUCAACUCUUUCUCCAGGGAAAUCCCUGGCUUUUUCAACAGCUCGCAGUCAAG” was -0.164; that for “GGUCACGUCUCAAUCAACUCUCACGAGGGGGGGAAAACCCCUUUACCCUCAAAAUCAACAGCUCGCAGUCAAG” was -0.0305.

Turning to “GGUCACGUCUCAAUCAACUCUCUCGAGGGGGGGAAAACCCCUUUACCCUCUUUCUCAACAGCUCGCAGUCAAG”, the binding signal (log2 fold change) worked out at 0.14. Regarding “GGUCACGUCUCAAUCAACUCUUCUUCAGGAGUUUUCUCCUGCAAUCUCAACAGCUCGCAGUCAAG”, the binding signal (log2 fold change) came to 0.1. As for “GGUCACGUCUCAAUCAACUCAUACGAGGGGGGGAAAACCCCUUUGCCCUCAAUAUCAACAGCUCGCAGUCAAG”, the figure is -0.239; as for “GGUCACGUCUCAAUCAACUCUAACGAGGGGGGGAAAACCCCUUUACCCUCACUUUCAACAGCUCGCAGUCAAG”, 0.232; as for “GGUCACGUCUCAAUCAACUCCCACGAGGGGGGGAAAACCCCUUUACCCUCAACCUCAACAGCUCGCAGUCAAG”, 0.335.

In the case of “GGUCACGUCUCAAUCAACUCUUUUCCCAGGGAAAUCCCUGGCUAUCUCAACAGCUCGCAGUCAAG”, the binding signal (log2 fold change) stood at 0.0673. The value for “GGUCACGUCUCAAUCAACUCAUCCUCAGGAGUUUGCUCCUGUAUAUUCAACAGCUCGCAGUCAAG” was 0.152. Consider “GGUCACGUCUCAAUCAACUCUAUCCCAGGAGUUUUCUCCUGCAUAUUCAACAGCUCGCAGUCAAG”, for which the binding signal (log2 fold change) was -0.0657. As for “GGUCACGUCUCAAUCAACUCUCAAGAGGGGGGGAAAACCCCUUUACCCUCACCGUCAACAGCUCGCAGUCAAG”, the figure is -0.187. The value for “GGUCACGUCUCAAUCAACUCACAAGAGGGGGGGAAAACCCCUUUGCCCUCACCUUCAACAGCUCGCAGUCAAG” was 0.228; that for “GGUCACGUCUCAAUCAACUCAUCUCCCAGGGAAAGCCCUGGUAUUUUCAACAGCUCGCAGUCAAG” was 0.263.
